PubChem BioAssay AID686979 (National Center for Advancing Translational Sciences (NCATS), 2013)
Values joined by “and” are separate entries in the source; they are usually repeats but may differ in a detail not shown here. Identical values can stand only once. Screen size: about 420,000 compounds; about 50,000 (12%) were called active. Inconclusive means that the source gave no clear call. Such entries were picked first, then a sample of the others. Calls follow the shape of the dose curve; as a rule, active = well fitted inhibition curve with a large enough effect; inconclusive = small, poorly fitted or top-dose-only effect; inactive = flat fitted curve, though single readings scatter. No potency is given beside an inconclusive call; the fits are too rough.

Experiment: qHTS for Inhibitors of human tyrosyl-DNA phosphodiesterase 1 (TDP1): qHTS in cells in presence of CPT; also: nearly all actives have a fitted effect of over 55% in size
Conditions: chicken DT40 Tdp1-/-;hTDP1 cells + 20 nM CPT, ATP luminescence, 48 h; activity change, negative = growth inhibition: at 46.2 µM (top of the series) unless noted
Summary of the method: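 Chicken DT40 Tdp1-/- cells complemented with human TDP1, 400 cells/well, exposed to compounds plus 20 nM camptothecin for at least 48 h at 37 C; viability read as ATP content by CellTiter-Glo luminescence.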
% is scaled to controls: 0 for no effect and ±100 for the full control effect; potency is read from the fitted curve at half-maximal effect; tags tell the direction and shape of the fitted curve.

| Structure (SMILES) | Potency | activity change, negative = growth inhibition |
| --- | --- | --- |
| COc1cc2c(-c3ccc4[nH]ccc4c3)c(-c3ccc(C#N)cc3)oc(=O)c2cc1OC | active: 14.6 µM | – |
| O=C(Nc1sc2c(c1C(=O)O)CCCC2)c1ccc(Cl)cc1 | inconclusive [inhibitor, single point] | – |
| COCCn1c(SCC(=O)NC2CC2)nnc1-c1ccco1 | inactive | – |
| O=CNc1cc(-c2ccccc2)cn2c(-c3ccc(F)c(Cl)c3)cnc12 | active: 23.1 µM | – |
| Cc1ccc(NC(=O)NNC(=O)CN2C(=O)COc3ccccc32)cc1 | inactive | – |
| Cc1c(C)n(CCc2c[nH]c3ccccc23)ccc1=O | inactive | – |
| C[N+]1(CC(=O)c2ccc(Cl)cc2)CCOCC1 | inactive | – |
| COc1ccc(C(=O)/C=C/c2ccc(OC)cc2OC)c(O)c1 | inconclusive [inhibitor, single point] | – |
| CC(=O)Oc1ccc(N(c2ccccc2)S(=O)(=O)c2ccc(C)cc2)cc1 | inconclusive [inhibitor, single point] | – |
| CCN(CC)S(=O)(=O)c1ccc(NC(=O)c2c(-c3ccccc3)noc2C)cc1 | inconclusive [inhibitor, single point] | – |
| O=C(Nc1ccc(F)cc1)Nc1cc(OCC(F)(F)F)cc(OCC(F)(F)F)c1 | active: 2.59 µM | – |
| O=c1c2cccnc2[nH]c(=S)n1CCC1=CCCCC1 | inconclusive [inhibitor, partial curve, poor fit] | – |
| Cc1onc(-c2ccccc2Cl)c1C(=O)OCC(=O)c1ccccc1 | inconclusive [inhibitor, single point] | – |
| O=C(O)c1cc([N+](=O)[O-])ccc1NCc1ccccc1Cl | inconclusive [inhibitor, single point] | – |
| O=C(C1=C[C@H](c2ccc(C(F)(F)F)cc2)C[C@H](OCc2ccc(CO)cc2)O1)N1CCOCC1 | inconclusive [inhibitor, single point] | – |
| CC(C)C[C@H](CO)N(Cc1ccccc1)S(=O)(=O)N(Cc1ccccc1)[C@@H](CO)CC(C)C | active: 22.4 µM and active: 16.4 µM | – |
| CCOc1ccc(Nc2nc3c(S(=O)(=O)c4ccc(C(C)C)cc4)nnn3c3ccsc23)cc1 | inconclusive [inhibitor, single point] | – |
| CCOCCCn1c(SCC(=O)N(C)C2CCS(=O)(=O)C2)nc2ccccc2c1=O (stereo not drawn) | inconclusive [inhibitor, partial curve] | – |
| Cc1cc2nc(-c3ccc(NC(=O)c4cc5ccccc5o4)cc3)oc2cc1C | inactive | – |
| CC(C)=C1C2C=CC1C1C(=O)N(c3ccc4c(c3)OCO4)C(=O)C21 (stereo not drawn) | inconclusive [inhibitor, single point] | – |
| C=CCc1cc(Cl)ccc1OCCOCCNCCOC | inconclusive [inhibitor, single point] | – |
| COc1ccc(S(=O)(=O)N2CCN(Cc3ccc(Cl)cc3)CC2)cc1 | inconclusive [inhibitor, single point] | – |
| COc1cccc(-c2nc(C(=O)NCC3CCCO3)cc3c2[nH]c2ccccc23)c1 (stereo not drawn) | active: 2.59 µM | – |

| Structure (SMILES) | Potency | activity change, negative = growth inhibition |
| --- | --- | --- |
| O=C(CCN1C(=O)/C(=C/c2ccc(F)cc2)SC1=S)N[C@@H](CO)Cc1ccccc1 | active: 16.4 µM | – |
| CN(C)CCNC(=O)c1cccc(-c2cnc3c(NC=O)cc(-c4cc(F)c(F)c(F)c4)cn23)c1 | active: 4.11 µM | – |
| O=C1CCCN1CCCNc1ccc2nnc(CCC(=O)N3CCN(c4ccc(F)cc4)CC3)n2n1 | inactive | – |
| Cc1c(C(=O)N2CCN(c3ccccc3)CC2)oc2c(F)cccc12 | inconclusive [inhibitor, single point] | – |
| COc1ccc(/C=C2\SC(N3CCc4ccccc4C3)=NC2=O)cc1 | inconclusive [inhibitor, single point] | – |
| COc1cccc(NC(=O)CCNC(=O)C2CCN(S(=O)(=O)c3ccc(F)cc3)CC2)c1 | inactive | – |
| O=C(Nc1ccccc1)c1ccc(C(=O)Nc2ccccc2)nc1 | inconclusive [inhibitor, single point] | – |
| CC(C)Oc1cccc(C(=O)C2CCCN(C(=O)c3csnn3)C2)c1 (stereo not drawn) | inactive | – |
| CCCN(CCC)c1nc(N)c(C#N)c(CC#N)c1C#N | active: 14.6 µM | – |
| CC(C)CC(N)c1csc(Nc2ccc(C(=O)c3ccccc3)cc2)n1 (stereo not drawn) | inconclusive [inhibitor, single point] | – |
| Cc1sc2ncn(CC(=O)Nc3ccc(C(C)C)cc3)c(=O)c2c1S(=O)(=O)N1CCN(c2ncccn2)CC1 | inconclusive [inhibitor, single point] | – |
| Cc1cc(OCC(=O)Nc2ccc(F)c(F)c2)nc(C(C)C)n1 | – | inconclusive: -37.4% [inhibitor] |
| N#Cc1c(N)nc(SCC(=O)NCc2ccc3c(c2)OCO3)c(C#N)c1-c1cccs1 | inconclusive [inhibitor, single point] | – |
| CCn1c(SCC(=O)c2ccccc2)nnc1-c1cc2cc(Br)ccc2o1 | inconclusive [inhibitor, partial curve] | – |
| O=C(Nc1ccc2c(c1)OCO2)c1nn(-c2ccccc2)c(=O)c2ccccc12 | – | inconclusive: -31.1% [inhibitor] |
| Cc1ccccc1C(=O)NC(=S)Nc1sc2c(c1C#N)CCC(C)C2 (stereo not drawn) | inconclusive [inhibitor, single point] | – |
| COc1ccccc1N1CCN(C(=O)/C=C/c2cccs2)CC1 | inconclusive [inhibitor, partial curve] | – |
| CC1=CN2CC(O)CN=C2C=C1 (stereo not drawn) | inactive | – |
| C/C=C/C(=O)N1c2ccc(C)cc2C(C)=CC1(C)C | inconclusive [inhibitor, partial curve] | – |
| O=C(CC1C[C@H](C(=O)N2CCOCC2)[C@@]2(CCC3CCCC3)c3[nH]c4ccccc4c3CCN2C1=O)NCCN1CCOCC1 (stereo partly drawn) | inconclusive [inhibitor, single point] | – |
| Cc1ccc(C)c(S(=O)(=O)NNC(=O)c2sc(NS(=O)(=O)c3ccccc3)nc2C)c1 | inconclusive [inhibitor, single point] | – |
| CCOC(=O)c1c(NC(=O)CN2C(=O)NC(C)(c3ccc(OC(F)F)cc3)C2=O)sc(C)c1C (stereo not drawn) | active: 20.6 µM | – |
| COc1ccc(OC)c(C2=NOC(C(=O)N3CCN(c4ccccc4)CC3)C2)c1 (stereo not drawn) | inconclusive [inhibitor, single point] | – |

| Structure (SMILES) | Potency | activity change, negative = growth inhibition |
| --- | --- | --- |
| CCOC(=O)CSc1nc2sc(C)c(C)c2c(=O)n1N | inactive | – |
| CCOc1cc(C(=O)OC(C(=O)NC(=O)NC)c2ccccc2)ccc1OCC(=O)N1CCOCC1 (stereo not drawn) | active: 18.4 µM | – |
| Cc1cc(Cl)ccc1OCC(=O)Nc1ccccc1N1CCOCC1 | inconclusive [inhibitor, single point] | – |
| Nc1ccc2c(c1)C(O)c1cccc(C(=O)O)c1-2 (stereo not drawn) | inactive | – |
| CN(C)S(=O)(=O)c1cccc(NC(=O)CCc2nc3cc(S(=O)(=O)N4CCOCC4)ccc3n2C)c1 | inconclusive [inhibitor, single point] | – |
| COc1ccc(S(=O)(=O)Nc2ccc3oc4c(c3c2)CCCC4)cc1 | inconclusive [inhibitor, single point] | – |
| COc1ccc2c(c1)sc1ncc(C(=O)NCc3ccccc3F)c(=O)n12 | inactive | – |
| Cc1cc(C)cc(NC(=S)N2CCC(c3nc4ccccc4s3)CC2)c1 | inconclusive [inhibitor, partial curve] | – |
| Cc1cccc(NC(=S)N(CCN(C)C)C(C)c2ccco2)c1 (stereo not drawn) | inactive | – |
| COc1ccc2ncc(S(=O)(=O)c3ccccc3)c(N3CCN(c4ccccc4)CC3)c2c1 | inconclusive [inhibitor, single point] | – |
| Cc1ccccc1C(=O)N1CC(=O)Nc2ccc(Cl)cc2C1c1ccccc1 (stereo not drawn) | inconclusive [inhibitor, single point] | – |
| CCCCCc1cc(=O)oc2c(C(CCN3CCCC3)c3cc(OC)c(OC)c(OC)c3)c(OC)cc(OC)c12 (stereo not drawn) | active: 5.8 µM | – |
| CCOC(=O)N1CCN(C(=O)CSc2nc3c(cnn3-c3ccc(C)cc3)c(=O)[nH]2)CC1 | inconclusive [inhibitor, single point] | – |
| CCc1cc2c(COC(=O)c3cccc(S(C)(=O)=O)c3)cc(=O)oc2cc1O | inconclusive [inhibitor, single point] | – |
| CCCCOc1ccc(C(=O)N/N=C/c2cn[nH]c2-c2ccc(OC)c(OC)c2)cc1 | inconclusive [inhibitor, single point] | – |
| CCOC(=O)C1=C(C)N=c2s/c(=C\c3ccc(C(=O)O)cc3)c(=O)n2C1c1ccc(OC)cc1OC (stereo not drawn) | inconclusive [inhibitor, single point] | – |
| COc1cccc(C(=O)N/N=c2\oc3c(OC)cccc3cc2C(=O)NCc2ccccc2)c1 | inconclusive [inhibitor, partial curve] | – |
| O=C(NN1CCCCC1)c1cccc2ccccc12 | inactive | – |
| Cc1ccc(NC(=O)C2CCN(S(=O)(=O)c3ccc4c(c3)NC(=O)C(C)S4)CC2)c(Cl)c1 (stereo not drawn) | active: 13 µM | – |
| O=C(CCSCc1cccc(Cl)c1)N1CCN(c2ccc(Cl)cc2)CC1 | inconclusive [inhibitor, single point] | – |
| N#Cc1cccc(-c2nc(NCCN3CCOCC3)c3ccccc3n2)c1 | inconclusive [inhibitor, single point] | – |
| CCn1c(=O)c(C(=O)CN2CCN(Cc3ccc4c(c3)OCO4)CC2)c(N)n(Cc2ccccc2)c1=O | inconclusive [inhibitor, single point] | – |
